Assay results from ChEMBL document CHEMBL4888484, “Replenishing the malaria drug discovery pipeline: Screening and hit evaluation of the MMV Hit Generation Library 1 (HGL1) against asexual blood stage Plasmodium falciparum ,using a nano luciferase reporter read-out” (2022).
About 540 (0.36%) of roughly 150,000 compounds showed an effect of 50% or more. The list shows a part of the results.

test system: Plasmodium falciparum; experiment: Primary screen in NF54 nanoGlo assay, in single point, at 2uM, 72h; a lower Z score goes with more inhibition; format: functional, Erythrocyte; details: timepoint 72 hour

Row | SMILES | % Inhibition | Z score
1 | C=CCN(CC#Cc1ccccc1)Cc1c(C)nn(C)c1Cl | -5% | 1.03
2 | O=C(CN1CCS(=O)(=O)CC1)OCc1ccccc1Cl | -13% | 1.15
3 | CS(=O)(=O)N1CCC[C@H](CN(CC#N)c2ccccc2)C1 | -5% | 0.65
4 | O=C(NC[C@H]1CCCO1)c1cc(-c2cccc(Cl)c2)[nH]n1 | 6% | -0.88
5 | Cc1nc(CC[C@H]2CCN(C(=O)c3ccccc3)C2)no1 | -2% | 0.27
6 | CC(C)[C@H](Cc1ccc(F)cc1)NCC(=O)Nc1cccnc1 | -8% | 1.08
7 | COc1ccccc1N1CCN(C(=O)c2ccc(C)c(NC(=O)c3ccccc3)c2)CC1 | -6% | 0.88
8 | Cc1nn(C)c(C)c1CCC(=O)N(C)[C@@H](C)c1cncs1 | -13% | 1.47
9 | O=C(c1ncc(F)cc1F)N1CC[C@H]1c1ccccc1F | -8% | 0.94
10 | Cc1cccc(CN2CCC[C@@]3(CCN(Cc4cccc(C)n4)C3)C2=O)c1 | -8% | 1.03
11 | O=C(NC1CC1)c1ccc(-n2cnnn2)cc1 | -3% | 0.54
12 | Cn1c(=O)c2c(nc(CCCN3CCCCC3)n2Cc2cccc(Br)c2)n(C)c1=O | -37% | 4.35
13 | CC(=O)Nc1ccc(S(=O)(=O)Nc2cnc3c(cnn3C(C)C)c2)cc1 | -3% | 0.41
14 | CO[C@@H](C)CS(=O)(=O)Nc1c(F)cc(Cl)cc1Cl | -4% | 0.52
15 | CC1CCCCC1N1C(=O)[C@H]2C(C(=O)Nc3ccc(Cl)cc3)[C@H]3C=C[C@@]2(O3)C1C(=O)NC1CCCCC1 (stereo partly drawn) | -1% | 0.23
16 | Cc1ncnc(OCC2CCN(Cc3nc4ccccc4[nH]3)CC2)c1C | -11% | 1.28
17 | O=S(=O)(c1cccc(-n2cnnn2)c1)N(CCO)CCN1CCOCC1 | -12% | 1.41
18 | Cc1nc2ncccn2c1C(=O)N1CCC(n2cc(CC(C)C)nn2)CC1 | 10% | -1.01
19 | CCc1csc(CCNC(=O)CCc2ccnn2C)n1 | -21% | 3.91
20 | CCS(=O)(=O)C1CN(C(=O)c2ccnc(N(C)C)c2)C1 | -4% | 0.77
21 | CCOC(=O)N(C)C1CCN(C2Cc3ccccc3C2O)CC1 (stereo not drawn) | -12% | 1.09

Row | SMILES | % Inhibition | Z score
22 | Cc1nnc(NC[C@](C)(O)c2cccc(F)c2)nc1C | -4% | 0.86
23 | CN1CCN(c2ccccc2NS(=O)(=O)Cc2ccccc2)CC1 | -12% | 1.03
24 | COc1cccc(-c2cc3c(n2-c2ccc(C(=O)NC4CC4)cc2)CCCCC3)c1 | -5% | 0.54
25 | O=C(CN1CCc2nc(NC(=O)c3ccoc3)sc2C1)Nc1ccc(F)c(Cl)c1 | 4% | -0.5
26 | O[C@@H]1C[C@H](Nc2nccs2)C[C@@H]1O | -10% | 1.85
27 | CCn1nc(-c2ccc(C)c(S(=O)(=O)N3CCN(C)CC3)c2)c2c(c1=O)CCCC2 | -12% | 1.91
28 | COC[C@H]1CCCN1S(=O)(=O)N(C)Cc1nc(C)cs1 | -19% | 2.49
29 | CC(C)=CCO[C@H]1CCOC[C@H]1NS(C)(=O)=O | 5% | -0.79
30 | Cc1ccc(C(=O)N2CCC[C@H]2c2cnn(C)c2)cc1Oc1ccncc1 | -10% | 1.41
31 | COc1ccc(CNC(=O)C2(N3CCOCC3)CCCC2)cc1OC | 29% | -3.29
32 | Cc1ccc(NS(=O)(=O)c2c(C)sc(C)c2-c2onc(C)c2C)c(Cl)c1 | -12% | 2.09
33 | CN(C[C@@H]1OCCN(C)[C@H]1c1ccccc1)C(=O)C1CCC(O)CC1 (stereo partly drawn) | -12% | 1.71
34 | Cc1cnc(C(=O)N[C@@H]2CCC[C@@H]2C(=O)N2CCCCCC2)cn1 | -9% | 1.17
35 | CN(C(=O)CCNC(=O)c1cc(F)ccc1Br)C1C2CCOC2C1(C)C (stereo not drawn) | -6% | 0.53
36 | O=C(N[C@H]1CCCCNC1=O)c1cc(C2CC2)nc2ccccc12 | -8% | 1.03
37 | Cc1ncsc1C(=O)N[C@H]1CCOC[C@@H]1O | -14% | 1.79
38 | Cc1nn(C)c(C)c1CN(CC(=O)Nc1cnccn1)C(C)C | 10% | -1.32
39 | O=C(CCc1c(F)cccc1Cl)N1CC(Nc2cnccn2)C1 | -6% | 0.7
40 | O=C(NCCCn1ccnc1)C1CCCCC1 | -8% | 1.09
41 | Cc1noc(C)c1C(=O)NCc1nc(-c2cc(C3CC3)on2)no1 | 12% | -1.49
42 | O=C(Nc1c2c(nn1-c1ccccc1)CS(=O)(=O)C2)[C@H]1CC(=O)N(c2ccc(F)cc2)C1 | -3% | 0.6

Row | SMILES | % Inhibition | Z score
43 | NC(=O)[C@@H]1C[C@@H](F)CN1C(=O)c1ccc(Br)o1 | 0% | 0
44 | CC(C)(C#N)CNc1ccc(C(F)(F)F)nn1 | 2% | -0.41
45 | Cc1cc(F)ccc1-c1c(-c2ccccc2)ncn1C[C@H]1COCCO1 | 1% | -0.17
46 | C[C@@H](Cc1ccc(F)c(Br)c1)C(=O)NC1(C#N)CC1 | -19% | 2.21
47 | O=C(COc1ccccc1)NCC(=O)N1CC[C@H](C2CCOCC2)C1 | -6% | 0.99
48 | O=C(CCn1cnnn1)N1C[C@@H]2CC[C@H]1CN(c1cnccn1)C2 | -1% | 0.07
49 | O=C(Nc1ccc(Br)cc1F)N1CC2CCCC21 (stereo not drawn) | 1% | -0.16
50 | O=C(Nc1cnns1)N[C@@H]1C=CCCC1 | 8% | -1
51 | CCN1CCCn2cc(S(=O)(=O)Nc3ccc(C)c(C)c3)cc2C1=O | 4% | -0.53
52 | O=C(NC1CC1)[C@@H]1CN(Cc2ccc(Cl)cc2F)C[C@H]1CO | 0% | 0.04
53 | Cc1ccc(CNCc2cccnc2)c(OC[C@H]2CCOC2)c1 | -10% | 1.31
54 | C[C@@]1(C(=O)NC2CCCCCCC2)CCC(=O)N1CCc1ccc(Cl)cc1 | -10% | 1.28
55 | CS(=O)(=O)N1C[C@H]2CN(C(=O)CCc3ccccc3)CC[C@@]2(CO)C1 | 3% | -0.39
56 | CCCc1cc(C(=O)N(C)CC[C@H]2CCCCO2)no1 | 0% | -0.09
57 | CCC(=O)N(C)[C@@H](CO)c1cc(OC)ccc1Br | -4% | 0.45
58 | CCn1cc(CCN2CCC(c3nc4cccc(C)c4o3)CC2)cn1 | -7% | 0.85
59 | COC[C@H](NC(=O)N1CC=C(c2c(C)[nH]c3ccccc23)CC1)C1CC1 | -7% | 1.19
60 | CCc1ncc(CN(C)S(C)(=O)=O)s1 | -2% | 0.25
61 | CN(C(=O)c1cnn(C(C)(C)C)c1)S(C)(=O)=O | -12% | 1.2
62 | COc1ccccc1CNC(=O)C1CCN(S(=O)(=O)c2cc3c(cc2C)NC(=O)CO3)CC1 | -4% | 0.45
63 | O=C(Nc1ccc2c(c1)OCO2)[C@@H](c1cccc(F)c1)N(Cc1ccc(F)cc1)C(=O)Cn1nnc2ccccc21 | 36% | -4.11

Row | SMILES | % Inhibition | Z score
64 | CC(C)c1cc(C(=O)N2CC[C@H](O)C2)cs1 | -9% | 1.54
65 | O=C(Cc1cn2cc(F)ccc2n1)Nc1ccc(Cl)cc1Cl | -12% | 1.47
66 | Cc1ccc2c(Cl)c(C(=O)Nc3ccc(S(=O)(=O)N4CCCC[C@@H]4C)cc3)sc2c1 | -12% | 1.61
67 | Cn1c(=O)[nH]c(=O)c2c1nc(N1CCc3ccccc3C1)n2CCCc1ccccc1 | -10% | 1.95
68 | Cc1c(Cl)ccc2c1N(C(=O)CCc1cnn(C)c1)CCC2 | -1% | 0.15
69 | CN1CCN(S(=O)(=O)c2cccc(Br)c2)c2ccccc2C1 | 2% | -0.36
70 | COc1ccccc1CCN(C)C(=O)c1nc2c(s1)CCC2 | -6% | 0.86
71 | COc1cccc(NC(=O)c2nc(-c3cn(Cc4ccc(F)cc4)nn3)no2)c1 | -10% | 1.97
72 | CCCn1ccnc1CN1CCNC(=O)[C@@H]1Cc1ccccc1 | -5% | 0.86
73 | CCOC(=O)N1CCC(Nc2nc(C)c(C(=O)Nc3ccccc3)s2)CC1 | -8% | 1.22
74 | CCOc1ccccc1CNC(=O)C1CCN(c2ncnc3c2nc2n3CCCCC2)CC1 | -11% | 1.83
75 | Cc1ccc2c(c1)C(=O)N(C)[C@@H](c1cccc3cccnc13)N2 | -2% | 0.43
76 | c1cc(-c2nc([C@H]3CCOC3)no2)c2nccnc2c1 | -8% | 1.53
77 | Cc1ccc(S(=O)(=O)N(CC(=O)NCCOc2ccccc2)c2cccc(Cl)c2)cc1 | -2% | 0.35
78 | C=CCOCC(O)CN(Cc1c(C)nn(-c2ccccc2)c1Oc1ccc(F)cc1F)CC1CCCO1 (stereo not drawn) | -1% | 0.07
79 | Cc1nc2ccc(C(=O)N3CCC(c4ncon4)CC3)cc2o1 | 3% | -0.64
80 | O=C(Nc1nc2c(s1)CN(C(=O)[C@H]1CC(=O)N(c3ccccc3)C1)CC2)c1ccoc1 | 4% | -0.52
81 | CNC(=O)CCCC(=O)N1CCC[C@H](N(C)c2ccc(C)cc2)C1 | 6% | -0.88
82 | COc1cc2c(NCc3nnc4n3CCCCC4)ccnc2cc1F | 6% | -0.87
83 | Cc1ccc(C(=O)OCC(=O)NC(=O)NCC(F)(F)F)c(O)c1 | 33% | -3.68
84 | COC(=O)c1cccc(CCN=C(N(C)C)N(C)C)c1 | -1% | 0.08
